Laboratory results taken from the supplement of paper PMC3334620.
In all, about 33,000 sequences were measured (“E-score (-0.5 to 0.5)”: median about -0.017, highest 2% from about 0.3 on). The list shows a part of the results.

Target: T1, Sut1 (UniProt P53032)
T1 sequence: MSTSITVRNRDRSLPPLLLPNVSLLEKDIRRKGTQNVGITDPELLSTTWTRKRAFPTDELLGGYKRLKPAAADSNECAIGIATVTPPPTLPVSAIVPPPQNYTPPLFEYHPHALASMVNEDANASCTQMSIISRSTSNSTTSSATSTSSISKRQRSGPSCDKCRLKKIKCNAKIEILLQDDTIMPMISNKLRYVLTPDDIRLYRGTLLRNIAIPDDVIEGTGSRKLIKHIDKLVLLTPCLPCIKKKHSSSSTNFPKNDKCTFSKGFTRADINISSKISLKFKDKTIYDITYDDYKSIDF
Assay: PBM E-score (8-mer binding enrichment) (E-score (-0.5 to 0.5)); higher = stronger / more preferred TF binding; most listed sequences are background and not binding sites
Settings: protein concentration: 200 nM; construct: GST-full length
Protocol: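 Universal 'all 10-mer' protein binding microarrays (Agilent AMADID 015681) probed with GST-tagged S. cerevisiae TFs (full-length or DBD) made by in vitro transcription/translation (PURExpress), about 100-200 nM. Bound TF was detected with fluorescent anti-GST. Each ungapped 8-mer (which stands for itself and its reverse complement) is scored by the PBM enrichment score (E-score), a modified Wilcoxon-Mann-Whitney statistic from -0.5 to +0.5, computed with the Universal PBM Analysis Suite. Scale: above 0.35 generally sequence-specific binding.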

Sequence	PBM E-score
AGACCTTA	-0.0293
TATAATAA	0.298
TTTCCAAA	0.133
AGATTACG	0.0898
CCAATGGG	-0.286
GTTGATGA	0.111
ACTCATGA	0.0472
CATTCTCA	0.102
TATATAAA	0.248
ACCTCACC	0.0629
AATTTATG	0.225
GATTTTGA	0.235
CACGGCCG	-0.241
CATACGCA	-0.0732
AGGACGAC	-0.0915
ACTCGCGC	-0.144
ATCTCTTC	0.0425
GAGAGTTA	-0.0175
CGAAAATA	0.197
CCATTACC	-0.101
AGATCAGC	-0.0817
CATCCGCA	0.0523
CGACGACG	-0.151
CTTTATTA	0.261
TGGGTCAA	-0.129

Sequence	PBM E-score
AGGCAAGA	-0.109
AAACTTAT	0.254
CACGTTCC	-0.288
ATGAAGCG	-0.174
CATCTAGC	-0.0138
ACCGGTTC	-0.219
CAAGCTAG	-0.215
CGCGACGA	-0.0132
AGAGTAGA	0.163
AGGTCGCC	-0.122
CAAACACA	0.0213
CAATTGAG	-0.109
CTGCTTGC	-0.13
GCCTAGGA	-0.122
ACACCCCG	-0.0228
GCCCCGCA	-0.223
CGGCTTTA	0.0621
ACAGCACA	0.0156
ACCTGTCT	-0.0847
AACTAACG	0.177
ATCTGTAA	0.139
ACTTAGCT	-0.227
GCGAGAAC	0.0447
TACGGCCA	-0.0907
AGTCGACC	-0.115

Sequence	PBM E-score
GCATCCGA	-0.0329
ATGGGCAG	-0.15
CCAAACGA	-0.00041
CCCGAAGA	-0.0672
CGATCGGC	-0.00869
GGACTAAA	0.21
AATCAGAG	-0.0426
AAAGTCGC	0.191
AACAGTAG	-0.083
CGCCCCTA	-0.264
GTAACACA	0.074
CGGACTGA	0.298
CGTACTGA	0.0987
CAAGAGAA	0.0231
ACGACGTC	-0.0917
AAGCCCCA	-0.302
ATTTTCTG	0.158
ACGGAGCT	0.386
AGCAAGTC	0.0391
ATAACTGC	0.119
ATCTATCG	-0.00359
GTCATTGA	0.109
AAATCGGA	0.397
GATTCTAA	0.00592
ACCGCACA	-0.299

Sequence	PBM E-score
AAAGGCTA	-0.129
ACCTATTC	-0.0369
GCGTCACA	-0.2
CCTCCAAA	-0.121
ACGTCGGC	-0.135
AGTAAGAG	0.00975
TAAACTGA	0.114
AACATAGG	-0.087
CACACCGC	-0.262
ACAAGGGA	-0.249
ACGCTCGA	-0.161
GCTGCGCA	-0.203
AGTTGTAG	0.126
AGCGGCCT	-0.177
AGCTGACA	-0.039
CCGTATTC	0.127
GCTAAGTA	0.0422
CCTTTGCA	-0.0712
CACGCGTC	0.084
GGGTAACA	-0.151
ATATAATA	0.284
CGCCATGC	-0.0469
AGAGGTCA	-0.285
CACGGGGC	-0.0112
CGCCGTGA	-0.16

Sequence	PBM E-score
GGGGGACA	-0.234
CGCCTTAA	-0.126
CGTGGAAG	-0.166
GGACCTAA	0.245
CATTCACG	-0.00457
GGTGTGGA	0.0142
ATCACTTC	0.14
CCCTTAAC	-0.247
AGACCCTC	-0.206
CACGGGCA	-0.148
CAGTAACC	-0.00589
ATTCCCCA	-0.0642
AACTTTGT	0.135
CTTCTGGC	-0.351
GGTTATCA	-0.0427
AGCGAGAC	-0.0806
CTTTTGTA	0.259
ACGACGGG	-0.225
CTCATGCC	-0.165
CCTGGACA	-0.274
GTGGTGAA	-0.0685
TGCAACCA	-0.0491
CTGCACCA	-0.218
CCAGGCAA	0.0413
CCTAGTAC	-0.0149

Sequence	PBM E-score
CGTTCAAA	0.142
AGTTCCTG	-0.111
CATTGCGA	-0.188
TGGCTCAA	-0.267
AATCTGAT	0.07
CCTCTTAC	-0.164
GGGTTAAC	0.0764
CCAGGTCA	-0.201
CAGCGTCA	-0.239
AGCAAACA	0.0396
GGATTCCC	-0.235
CATTGAGA	0.0506
ACTACCTA	-0.0655
GCTCTGCC	-0.128
CCCTAGCA	-0.309
GGTTTGCA	0.00025
AGCTTGGG	-0.134
GTGTAGAA	-0.035
CTATAGAC	-0.155
CGACGAAG	-0.00663
AATTACCC	-0.00645
CCAAAGCA	0.0507
CCAGAACC	-0.0656
GAAATGAA	0.28
CAGAATGA	-0.0822

Sequence	PBM E-score
ATCCTTGC	-0.184
AACCATTG	0.00486
AGCCATAC	-0.137
TGCACAAA	0.0959
CCCGGATC	0.213
CAGGGTCG	-0.173
AGGTTCCG	0.132
AAAGATCC	0.108
CTCTTTTA	-0.00723
CTTTTTAC	0.22
AAGATCGT	-0.147
CGGAATAA	0.306
ATGGTAAA	0.198
CACTGCAC	-0.208
AGTTCTTG	0.122
AAATCGTA	0.188
GTGTGTGA	0.0318
GAATGGTA	0.00303
ATGGCAAC	0.0647
GTTCTTCA	0.0769
CACACAGG	-0.122
ACAGACTC	-0.0578
